Test results taken from paper PMC4049591.
Changes are numbered by the printed parent chain. Names and notes keep the numbering of the source. No constants are given. Whether binding was seen depends on the method and setting. In cells and extracts the contact can be indirect. Some results given as binding are weak or reduced against the parent protein; the word gives no strength. Where a sequence is shown, tags or fusion partners need not be part of it.

Protein sequences, listed by entry. Tags and fused reporters are not part of them. Lines headed by an entry give the natural chain unless they say otherwise; changes in a name come on top. Chains listed by the source or under a name are the forms on record and can include a tag or linker.
Non-glycosylated human sonic hedgehog mutant N278A with HA tag (N278A-HA) (Q15465, form named): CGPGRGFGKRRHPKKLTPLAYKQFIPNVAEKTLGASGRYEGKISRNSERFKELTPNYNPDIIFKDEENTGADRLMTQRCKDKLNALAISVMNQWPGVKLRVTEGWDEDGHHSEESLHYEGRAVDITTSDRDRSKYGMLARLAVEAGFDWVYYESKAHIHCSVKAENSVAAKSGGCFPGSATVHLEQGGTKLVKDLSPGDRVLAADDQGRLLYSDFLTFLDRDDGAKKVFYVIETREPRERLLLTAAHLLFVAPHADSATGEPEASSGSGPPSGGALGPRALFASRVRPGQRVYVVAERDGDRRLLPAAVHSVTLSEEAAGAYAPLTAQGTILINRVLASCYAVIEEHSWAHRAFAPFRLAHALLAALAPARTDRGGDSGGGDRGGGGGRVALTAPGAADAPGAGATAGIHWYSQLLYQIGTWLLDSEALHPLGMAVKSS
UniProt Q86TM6: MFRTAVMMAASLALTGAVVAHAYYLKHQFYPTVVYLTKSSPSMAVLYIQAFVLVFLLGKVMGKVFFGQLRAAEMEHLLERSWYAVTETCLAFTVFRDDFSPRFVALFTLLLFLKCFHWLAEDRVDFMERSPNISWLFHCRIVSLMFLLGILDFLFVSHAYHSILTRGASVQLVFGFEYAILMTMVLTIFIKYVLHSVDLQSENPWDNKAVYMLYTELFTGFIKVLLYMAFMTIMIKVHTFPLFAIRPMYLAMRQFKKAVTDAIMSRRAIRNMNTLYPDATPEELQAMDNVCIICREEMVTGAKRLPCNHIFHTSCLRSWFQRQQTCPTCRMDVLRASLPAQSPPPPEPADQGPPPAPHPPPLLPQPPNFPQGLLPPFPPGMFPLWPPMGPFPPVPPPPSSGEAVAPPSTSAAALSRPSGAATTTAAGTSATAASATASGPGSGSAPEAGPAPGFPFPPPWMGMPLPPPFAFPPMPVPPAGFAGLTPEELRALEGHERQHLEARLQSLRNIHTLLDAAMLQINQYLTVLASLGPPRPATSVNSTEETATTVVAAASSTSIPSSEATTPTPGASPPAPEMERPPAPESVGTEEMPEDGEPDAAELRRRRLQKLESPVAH

Key:
[1] = biological target: T1, Myc-tagged wild type EDEM2 (human) (UniProt Q9BV94); experiment: co-IP; 293T cells transfected with Myc-tagged EDEMs (10% of the DNA normally used); lysed in buffer with 1% Triton; immunoprecipitated with Myc antibodies; blotted for endogenous SEL1L, HRD1, Bip, calnexin and ERp57
T1 sequence: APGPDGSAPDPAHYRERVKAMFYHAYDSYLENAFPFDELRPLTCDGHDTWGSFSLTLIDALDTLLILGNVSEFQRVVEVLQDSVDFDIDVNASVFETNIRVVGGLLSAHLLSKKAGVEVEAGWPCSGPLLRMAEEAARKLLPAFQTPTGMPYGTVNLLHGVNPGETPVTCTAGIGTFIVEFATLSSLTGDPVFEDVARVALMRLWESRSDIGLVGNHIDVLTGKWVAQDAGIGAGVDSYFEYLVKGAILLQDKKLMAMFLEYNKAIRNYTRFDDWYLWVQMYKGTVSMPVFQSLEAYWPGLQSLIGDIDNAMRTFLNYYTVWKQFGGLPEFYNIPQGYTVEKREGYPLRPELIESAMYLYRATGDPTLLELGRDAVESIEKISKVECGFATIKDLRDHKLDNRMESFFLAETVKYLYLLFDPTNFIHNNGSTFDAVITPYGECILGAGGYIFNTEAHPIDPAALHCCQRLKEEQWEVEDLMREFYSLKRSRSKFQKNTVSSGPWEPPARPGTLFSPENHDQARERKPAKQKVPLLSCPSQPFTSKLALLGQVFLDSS

[2] = biological target: T2, Myc-tagged wild type EDEM3 (human) (UniProt Q9BZQ6); experiment: as above
T2 sequence: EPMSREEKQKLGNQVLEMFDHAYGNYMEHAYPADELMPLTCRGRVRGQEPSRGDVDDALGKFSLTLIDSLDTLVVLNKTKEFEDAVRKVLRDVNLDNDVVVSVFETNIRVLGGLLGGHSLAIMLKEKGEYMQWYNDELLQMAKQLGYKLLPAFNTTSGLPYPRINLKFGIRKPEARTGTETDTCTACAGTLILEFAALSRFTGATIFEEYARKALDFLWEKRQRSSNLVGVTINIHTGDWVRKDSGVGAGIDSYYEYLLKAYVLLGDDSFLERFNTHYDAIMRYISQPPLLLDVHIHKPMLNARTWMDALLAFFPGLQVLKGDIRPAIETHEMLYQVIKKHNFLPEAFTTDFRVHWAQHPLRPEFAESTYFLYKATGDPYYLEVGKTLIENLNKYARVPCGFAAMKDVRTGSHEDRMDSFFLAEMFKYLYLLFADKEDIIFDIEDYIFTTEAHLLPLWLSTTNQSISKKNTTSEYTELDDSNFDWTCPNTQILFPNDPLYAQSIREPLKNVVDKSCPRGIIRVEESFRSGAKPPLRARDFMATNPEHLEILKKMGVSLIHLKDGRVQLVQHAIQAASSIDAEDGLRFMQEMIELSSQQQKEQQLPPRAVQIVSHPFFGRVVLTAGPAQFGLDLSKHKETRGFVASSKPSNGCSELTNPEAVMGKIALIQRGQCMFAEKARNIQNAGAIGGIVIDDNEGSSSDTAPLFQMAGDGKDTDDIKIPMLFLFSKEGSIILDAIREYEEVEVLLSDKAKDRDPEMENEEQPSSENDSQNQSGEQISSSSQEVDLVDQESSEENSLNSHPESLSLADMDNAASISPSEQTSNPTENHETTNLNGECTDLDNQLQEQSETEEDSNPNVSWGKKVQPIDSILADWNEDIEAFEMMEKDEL

[3] = biological target: Non-glycosylated human sonic hedgehog mutant N278A with HA tag (N278A-HA) (human) (UniProt Q15465); experiment: co-IP; cells co-transfected with SHH-HA or N278A-HA and Myc-tagged EDEMs or Ret4A (one tenth of the usual DNA); lysed in buffer with 1% Triton; immunoprecipitated with HA antibodies; blotted with HA and Myc antibodies

## HRD1 (from UniProt Q86TM6 1-617)
[1]
  binding: no binding
[2]
  binding: no binding

B1: Myc-tagged EDEM1 active site mutant E493Q (protein, UniProt Q92611 1-657)
chain: MQWRALVLGLVLLRLGLHGVLWLVFGLGPSMGFYQRFPLSFGFQRLRSPDGPASPTSGPVGRPGGVSGPSWLQPPGTGAAQSPRKAPRRPGPGMCGPANWGYVLGGRGRGPDEYEKRYSGAFPPQLRAQMRDLARGMFVFGYDNYMAHAFPQDELNPIHCRGRGPDRGDPSNLNINDVLGNYSLTLVDALDTLAIMGNSSEFQKAVKLVINTVSFDKDSTVQVFEATIRVLGSLLSAHRIITDSKQPFGDMTIKDYDNELLYMAHDLAVRLLPAFENTKTGIPYPRVNLKTGVPPDTNNETCTAGAGSLLVEFGILSRLLGDSTFEWVARRAVKALWNLRSNDTGLLGNVVNIQTGHWVGKQSGLGAGLDSFYEYLLKSYILFGEKEDLEMFNAAYQSIQNYLRRGREACNEGEGDPPLYVNVNMFSGQLMNTWIDSLQAFFPGLQVLIGDVEDAICLHAFYYAIWKRYGALPERYNWQLQAPDVLFYPLRPQLVESTYLLYQATKNPFYLHVGMDILQSLEKYTKVKCGYATLHHVIDKSTEDRMESFFLSETCKYLYLLFDEDNPVHKSGTRYMFTTEGHIVSVDEHLRELPWKEFFSEEGGQDQGGKSVHRPKPHELKVINSSSNCNRVPDERRYSLPLKSIYMRQIDQMVGLI
[3]
  binding: binds

B2: Myc-tagged EDEM2 active site mutant D258N (protein, UniProt Q9BV94 22-578)
chain: T1 sequence with D237N
[3]
  binding: binds

B3: Myc-tagged EDEM3 active site mutant D293N (protein, UniProt Q9BZQ6 42-932)
chain: T2 sequence with D252N
[3]
  binding: binds weakly

B4: Myc-tagged wild type EDEM1 (protein, UniProt Q92611 1-657)
chain: B1 chain with Q493E
[3]
  binding: binds

B5: Myc-tagged wild type EDEM2 (protein, UniProt Q9BV94 22-578)
chain: T1 sequence
[3]
  binding: binds

B6: Myc-tagged wild type EDEM3 (protein, UniProt Q9BZQ6 42-932)
chain: T2 sequence
[3]
  binding: binds weakly
